Measurements as given in the supplement of paper PMC12582362.
Structures can show the parent of a compound that is named as a salt. In all, about 1,500 compounds went through this assay and about 30 (2%) showed activity.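 How the source made its calls: active = robust z-score below -2; a few such results were not called.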 This is one part of the list.

system: optoTopBP1 Flp-In 293 T-REx (HEK293) cells; test: light-induced TopBP1 condensate (nuclear foci) count, plate-normalised robust z-score vs non-control wells; higher = more TopBP1 condensates (negative = condensation inhibitor), active = hit call of the paper; settings: 10 µM; incubation time 2 h

| SMILES | light-induced TopBP1 condensate (z-score) |
| --- | --- |
| CC(CN(C)C)CN1c2ccccc2Sc2ccccc21 (stereo unspecified) [Trimeprazine tartrate] | inactive: 0.00204 |
| C=CCOC(Cn1ccnc1)c1ccc(Cl)cc1Cl (stereo unspecified) [Enilconazole] | inactive: 0.833 |
| C[C@]1(Cn2ccnn2)[C@H](C(=O)O)N2C(=O)C[C@H]2S1(=O)=O [Tazobactam] | inactive: 0.146 |
| CC(CN(C)C)C(C)(O)Cc1ccc(Cl)cc1 (stereo unspecified) [Clobutinol hydrochloride] | inactive: 0.904 |
| CC[C@@H](CO)NCCN[C@@H](CC)CO [Ethambutol dihydrochloride] | inactive: 1.17 |
| CC(=O)OCC(=O)[C@@]1(OC(C)=O)[C@@H](C)C[C@H]2[C@@H]3C[C@H](F)C4=CC(=O)C=C[C@]4(C)[C@@]3(F)[C@@H](O)C[C@@]21C [Diflorasone Diacetate] | inactive: -0.789 |
| CCN(CC)CCOCCOC(=O)C(CC)(CC)c1ccccc1 [Oxeladin citrate] | inactive: 0.047 |
| CCCOc1ccc(C(=O)OCCN(CC)CC)cc1N [Proparacaine hydrochloride] | inactive: -0.35 |
| NC1CCN(c2nc3c(cc2F)c(=O)c(C(=O)O)cn3-c2ccc(F)cc2F)C1 (stereo unspecified) [Tosufloxacin hydrochloride] | inactive: 0.531 |
| COC(=O)Nc1nc2cc([S+]([O-])c3ccccc3)ccc2[nH]1 (stereo unspecified) [Oxfendazol] | inactive: 0.733 |
| COc1ccccc1OCC(O)COC(N)=O (stereo unspecified) [Methocarbamol] | inactive: 0.0481 |
| Cc1cc(N)c2ccccc2[n+]1CCCCCCCCCC[n+]1c(C)cc(N)c2ccccc21 [Dequalinium dichloride] | inactive: 0.523 |
| Nc1ccn([C@@H]2CS[C@H](CO)O2)c(=O)n1 [Lamivudine] | inactive: 0.279 |
| CO/N=C(\C(=O)N[C@@H]1C(=O)N2C(C(=O)OC(C)OC(C)=O)=C(COC(N)=O)CS[C@H]12)c1ccco1 (stereo partly specified) [Cefuroxime axetil] | inactive: -0.531 |
| NC(=O)[C@@H]1CCCN1C(=O)[C@H](Cc1c[nH]cn1)NC(=O)[C@@H]1CCC(=O)N1 [Thyrotropin-Releasing Hormone] | inactive: 0.478 |
| CCOC(=O)[C@@](C)(N)Cc1ccc(O)c(O)c1 [Methyldopate hydrochloride] | inactive: -0.519 |
| O=C(c1ccccc1)c1ccc2n1CCC2C(=O)O (stereo unspecified) [Ketorolac tromethamine] | inactive: -0.884 |
| COc1c(N2CCNC(C)C2)c(F)cc2c(=O)c(C(=O)O)cn(C3CC3)c12 (stereo unspecified) [Gatifloxacin] | inactive: -0.00416 |
| CN1Cc2c(N)cccc2C(c2ccccc2)C1 (stereo unspecified) [Nomifensine maleate] | inactive: 0.0656 |
| CCN[C@@H]1C[C@H](N)[C@@H](O[C@H]2OC(CN)=CC[C@H]2N)[C@H](O)[C@H]1O[C@H]1OC[C@](C)(O)[C@H](NC)[C@H]1O [Netilmicin sulfate] | inactive: 0.0588 |
| CC(C)(O)c1ccccc1CC[C@@H](SCC1(CC(=O)O)CC1)c1cccc(/C=C/c2ccc3ccc(Cl)cc3n2)c1 [Montelukast] | inactive: 0.412 |
| c1ccc(CNc2ncnc3nc[nH]c23)cc1 [Aminopurine, 6-benzyl] | inactive: 0.088 |

| SMILES | light-induced TopBP1 condensate (z-score) |
| --- | --- |
| Oc1c(Br)cc(Br)c2cccnc12 [Broxyquinoline] | inactive: 0.239 |
| CC(=O)[C@@]12O[C@](C)(c3ccccc3)O[C@@H]1C[C@H]1[C@@H]3CCC4=CC(=O)CC[C@]4(C)[C@H]3CC[C@@]12C [Algestone acetophenide] | inactive: -1.65 |
| C[C@]12CCC(=O)C=C1CC[C@@H]1[C@@H]2C(=O)C[C@@]2(C)[C@H]1CC[C@]2(O)C(=O)CO [Cortisone] | inactive: -0.797 |
| COC(=O)[C@H](c1ccccc1Cl)N1CCc2sccc2C1 [Clopidogrel] | inactive: -0.757 |
| COCCCC/C(=N\OCCN)c1ccc(C(F)(F)F)cc1 [Fluvoxamine maleate] | inactive: -0.179 |
| C[C@H](N[C@@H](CCc1ccccc1)C(=O)O)C(=O)N1CCC[C@H]1C(=O)O [Enalaprilat dihydrate] | inactive: -0.886 |
| CN(C)[C@@H]1C(O)=C(C(N)=O)C(=O)[C@@]2(O)C(O)=C3C(=O)c4c(O)cccc4[C@@](C)(O)[C@H]3C[C@@H]12 [Tetracycline hydrochloride] | inactive: 0.0489 |
| Cc1ccc(N(CC2=NCCN2)c2cccc(O)c2)cc1 [Phentolamine hydrochloride] | inactive: -0.948 |
| CCc1ccc(CCOc2ccc(CC3SC(=O)NC3=O)cc2)nc1 (stereo unspecified) [Pioglitazone] | inactive: -0.504 |
| Cc1c(Cl)cccc1Nc1ccccc1C(=O)O [Tolfenamic acid] | inactive: -0.245 |
| CO[C@H]1/C=C/O[C@@]2(C)Oc3c(C)c(O)c4c(O)c(c(/C=N/N5CCN(C)CC5)c(O)c4c3C2=O)NC(=O)/C(C)=C\C=C\[C@H](C)[C@H](O)[C@@H](C)[C@@H](O)[C@@H](C)[C@H](OC(C)=O)[C@@H]1C [Rifampicin] | inactive: 0.31 |
| CC(C(=O)O)c1ccc(CC2CCCC2=O)cc1 (stereo unspecified) [loxoprofen] | inactive: 0.426 |
| CC[C@H]1OC(=O)[C@H](C)[C@@H](O[C@H]2C[C@@](C)(OC)[C@@H](O)[C@H](C)O2)[C@H](C)[C@@H](O[C@@H]2O[C@H](C)C[C@H](N(C)C)[C@H]2O)[C@](C)(O)C[C@@H](C)C(=O)[C@H](C)[C@@H](O)[C@]1(C)O [Erythromycin] | inactive: -0.359 |
| OCCN1CCN(CCCN2c3ccccc3Sc3ccc(C(F)(F)F)cc32)CC1 [Fluphenazine dihydrochloride] | inactive: -1.16 |
| CC(C)(Oc1ccc(CCNC(=O)c2ccc(Cl)cc2)cc1)C(=O)O [Bezafibrate] | inactive: 0.847 |
| c1ccc(CC2=NCCN2)cc1 [Tolazoline hydrochloride] | inactive: -0.561 |
| O=C1c2ccccc2C(=O)C1c1ccccc1 [Phenindione] | inactive: -0.545 |
| Clc1ccc2c(c1)C(N1CCNCC1)=Nc1ccccc1O2 [Amoxapine] | inactive: -0.889 |
| C[C@H](NCc1ccc(OCc2cccc(F)c2)cc1)C(N)=O [Safinamide] | inactive: -0.127 |
| CCn1cc(C(=O)O)c(=O)c2cc(F)c(N3CCNCC3)nc21 [Enoxacin] | inactive: 0.168 |
| CC(=O)OCC(=O)NCCCOc1cccc(CN2CCCCC2)c1 [Roxatidine Acetate hydrochloride] | inactive: 1 |
| CCCc1ncc(C[n+]2ccccc2C)c(N)n1 [Amprolium hydrochloride] | inactive: -0.31 |

| SMILES | light-induced TopBP1 condensate (z-score) |
| --- | --- |
| CC(C(=O)O)c1cccc(Oc2ccccc2)c1 (stereo unspecified) [Fenoprofen calcium salt dihydrate] | inactive: 0.527 |
| Oc1ccc(C2CNCCc3c2cc(O)c(O)c3Cl)cc1 (stereo unspecified) [Fenoldopam] | inactive: -0.865 |
| CC(C)=CCOc1ccc(/C=C/C(=O)c2ccc(OCC=C(C)C)cc2OCC(=O)O)cc1 [Sofalcone] | inactive: 0.373 |
| O=C1OC(c2ccc(O)cc2)(c2ccc(O)cc2)c2ccccc21 [Phenolphthalein] | inactive: 0.64 |
| CCN(CC)CCCC(C)Nc1ccnc2cc(Cl)ccc12 (stereo unspecified) [Chloroquine diphosphate] | inactive: -0.187 |
| Nc1ccc(S(=O)(=O)NC(=O)c2ccccc2)cc1 [Sulfabenzamide] | inactive: 1.06 |
| C=C(CC)C(=O)c1ccc(OCC(=O)O)c(Cl)c1Cl [Ethacrynic acid] | inactive: -0.868 |
| C1N2CN3CN1CN(C2)C3 [Methenamine] | inactive: 0.655 |
| O=C1NCCN1c1ncc([N+](=O)[O-])s1 [Niridazole] | inactive: 1.15 |
| CCCCCN(C)CCC(O)(P(=O)(O)O)P(=O)(O)O [Ibandronate sodium] | inactive: 0.116 |
| CC(C)(C)C(=O)OCOC(=O)[C@@H]1N2C(=O)[C@@H](/N=C/N3CCCCCC3)[C@H]2SC1(C)C [Pivmecillinam hydrochloride] | inactive: 0.64 |
| OCC(O)CN1CCN(c2ccccc2)CC1 (racemic) [Dropropizine (R,S)] | inactive: -1.35 |
| CNc1ncnc2c1ncn2[C@@H]1O[C@H](CO)[C@@H](O)[C@H]1O [N6-methyladenosine] | inactive: -0.502 |
| Cc1ncc([N+](=O)[O-])n1C [Dimetridazole] | inactive: 0.777 |
| CC(C)OC(=O)C(C(=O)OC(C)C)=C1SC=CS1 [Malotilate] | inactive: -1.03 |
| C[C@@H](O)[C@H]1C(=O)N2C(C(=O)O)=C(SCCNC=N)C[C@H]12 [Imipenem] | inactive: 0.639 |
| COc1cccc(CCc2ccccc2OCC(CN(C)C)OC(=O)CCC(=O)O)c1 (stereo unspecified) [Sarpogrelate hydrochloride] | inactive: 0.789 |
| c1ccc2c(c1)CCCC2C1=NCCN1 (stereo unspecified) [Tetrahydrozoline hydrochloride] | inactive: 0.856 |
| CC(=O)S[C@@H]1CC2=CC(=O)CC[C@]2(C)[C@H]2CC[C@@]3(C)[C@@H](CC[C@@]34CCC(=O)O4)[C@H]12 [Spironolactone] | inactive: -0.7 |
| CCCc1cc(C(N)=S)ccn1 [Prothionamide] | inactive: 0.563 |
| CC(Cc1cccc(C(F)(F)F)c1)NCCOC(=O)c1ccccc1 (stereo unspecified) [Benfluorex] | inactive: 0.997 |
| C=C1CC[C@H](O)C/C1=C/C=C1\CCC[C@]2(C)[C@@H]([C@H](C)CCCC(C)C)CC[C@@H]12 [Cholecalciferol] | inactive: -0.32 |
